Measured values taken from US10690661B2, “Yeast-based biosensor” (priority 2014, dated 2020).

Test system: mutant Ste2 receptors isolated for activity for ligand Variant 44
Assay: GFP/RFP reporter dose response, mutants isolated for activity for ligand Variant 44

| Sequence | activity of isolated mutants for the native pheromone (FIG. 3B) | EC50 relative to Ste2 (four of five isolated mutants, FIG. 3A) |
| --- | --- | --- |
| WHWLQLKPGQPMY [α-factor] | maintained some activity |  |
| WAWLQLKPGQPMY |  | significantly lower |
